Test results as given in the supplement of paper PMC11417369.
± gives the standard deviation of the averaged measurements. The list shows a part of the results.

system: PfAP2-LT AP2 domain (GST-tagged); test: gcPBM binding intensity (ln(normalized median fluorescence intensity)); higher = stronger DNA binding
How it was run: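 Plasmodium falciparum DNA-binding domains carrying a GST tag were expressed in E. coli and applied for 1 h, at about 25 μg on average, to an Agilent 4 × 180k array. The array held primer-extended double-stranded 36-bp intergenic genomic probes together with negative controls, and binding took place in 1× PBS with 1% milk, 0.2 mg/ml BSA, 0.5% salmon testes DNA and 0.03% Triton X-100. An Alexa488 anti-GST antibody detected bound protein, and the array was scanned at 488 nm. Binding intensity is taken as the highest Masliner-normalised natural-log median intensity across replicate spots of either probe orientation.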

Sequence | gcPBM binding intensity (ln)
AAAAAAAAAATATATTGTACAATATTGTAGCTATAT [XGTACX_site7180] | 8.85 ± 0.46
TATATATATGGACACACACACATATATATATATTTT [CACACA_site5409] | 9.67 ± 0.23
TATATATAATATAGTGCATGTAAAAAATAAACCATG [TGCATGCA_site932] | 8.84 ± 0.43
TATCTTACTTTTTGCACACACTAATATTATTGTTTA [CACACA_site4990] | 9.56 ± 0.31
TATAAATTAAAACATTGTACATTTTTATTATTATGT [XGTACX_site579] | 8.64 ± 0.43
AAAATTAATATCTTGGTGCATTTTTTAATATTATTA [GTGCAC_site9638] | 8.57 ± 0.47
ACAACTATTCATCATAGTACACGCATGATATATATA [XGTACX_site1539] | 8.94 ± 0.4
CAATTTATAAAGAAAACACACATATACATAAATACA [CACACA_site4829] | 8.96 ± 0.4
ACATTATAATATTATTGTACTATATATATAATATAT [XGTACX_site2291] | 8.76 ± 0.33
ATATAATAACATAACACACACATGTATTTATAGGTG [CACACA_site359] | 9.38 ± 0.3
AAAAAAAAAAAAAAAACACACATATATATATAATAT [CACACA_site1159] | 8.96 ± 0.42
GATAATCAGAATGGGGTGCAAAGAAAAAAAAAAAAA | 8.8 ± 0.61
TCTATTTATATGTATTGTACAATATAGATGTGTATT [XGTACX_site5646] | 9.01 ± 0.39
CCTAAATAATATCTATCACACACGCATATATACATA [CACACA_site8838] | 9.16 ± 0.35
TTATATTTATATTTATGTACATATTTTGTGTGAAAA [XGTACX_site2367] | 8.74 ± 0.37
AAATTAAAAATAATTACACACATAGAAAAATTATAT [CACACA_site2275] | 8.9 ± 0.45
GTAATACACAGACACACACACATACACATATTTATA [CACACA_site7313] | 9.91 ± 0.39
TAGCTGTTCAAAAAATGTACATATATAATATATATA [XGTACX_site5842] | 8.54 ± 0.38
ATATATATGCATTCAAGTACAAAAATATATGTTAAA [XGTACX_site910] | 8.88 ± 0.4
AGTGTATATAGAAACATACACACATATTAATTTTAC [CACACA_site3127] | 8.99 ± 0.38
TTCTATATATAATATTGTACTTAATTATTTTATTTT [XGTACX_site2701] | 8.72 ± 0.43
TACACAAACGTTATACGTACACAGGTTTTTCTTTTA [XGTACX_site5427] | 8.71 ± 0.49
ATAATAAGAAAAAAAAAAAAAAAAAAAAAAAAAAAA [TGCATGCA_negctrl_site377] | 8.18 ± 0.2

Sequence | gcPBM binding intensity (ln)
ATATTGAAATGTTAATAGAAATATATGGTTAAATTG [XGTACX_negctrl_site212] | 8.51 ± 0.51
ATGTATATAAATAGGTGTACATATAAGGTGTTAAGC [XGTACX_site5465] | 9.31 ± 0.52
ACCTCTCATATGTTATAAACAAAATGAAAATTTCAT [XGTACX_negctrl_site303] | 8.63 ± 0.33
ATTTTATTTTATTAAGTGCAAAAAAAAAAAAAGAAA | 8.29 ± 0.5
TGTACAATATAAGGAGCACACAAAAATGGATAAATA [CACACA_site8216] | 9.18 ± 0.56
ATATGGCATAAAACATGTACATGTTCATAAATATAT [XGTACX_site1924] | 9.02 ± 0.4
ATTATATCTATAATATGTACATATTATAATATATAT [XGTACX_site3211] | 8.74 ± 0.38
AGAATTAAAATAATACGTACACACATGTATAATACA [XGTACX_site1878] | 9.26 ± 0.42
AATTGTTAATGGTACGAACACACATATAAAGATGCA [CACACA_site2043] | 9.06 ± 0.37
TATATATAAGAAAAAAGTACAGATATATATATATTC [XGTACX_site4788] | 8.87 ± 0.5
TATACAGACAGACACACACACATATATATATATATA [CACACA_site1734] | 10.3 ± 0.13
TTTTAAGAAAAAAAATGTACACATGAAAATAGTGAA [XGTACX_site5898] | 8.38 ± 0.53
TGTTATATTATAACTACACACGTATTATGTTATATC [CACACA_site839] | 9.15 ± 0.35
AAATTTTCACTTCAAAAACACACGTATTTTTTTCCT [CACACA_site3813] | 8.8 ± 0.47
GCTAGTTCATAAAATTGTACAAAAAAAAAAAAAAAA [XGTACX_site2223] | 8.46 ± 0.42
AAAAAAAAAAAAAAAAGTACATGCCATATATTTTCA [XGTACX_site4580] | 8.62 ± 0.33
TTTTTTATCTAATATTTTATAATTTTCATAAATTTG [GTGCAC_negctrl_site534] | 8.34 ± 0.62
TAAATAATGTTAAACACACATACCGATATATAATTA [CACACA_site2711] | 8.89 ± 0.42
AATAGAAACATTTTACATGTATATATAATTTTTTTT [XGTACX_negctrl_site190] | 8.53 ± 0.46
AAATAATCTATACACAACGTATAAGAATAATATATG [TGCATGCA_negctrl_site422] | 8.8 ± 0.49
ATTTTTTTACAAAAATGTACACATGAAATATGTAAT [XGTACX_site1372] | 8.69 ± 0.49
TAAAAGTATATATATACACACATAAATATATCTGTA [CACACA_site4537] | 9.16 ± 0.3
TGACAACATAGAGGGGCACACACATATATACATAAA [CACACA_site8550] | 9.39 ± 0.56

Sequence | gcPBM binding intensity (ln)
TATTATTTTAGAATGCGTACTTATAAAATATTTTAT [XGTACX_site867] | 8.6 ± 0.38
GTGGAATAATATATATGTACATATTTAAAATATTTA [XGTACX_site3499] | 8.64 ± 0.47
AATGGTCTTTTCAACACACGTACATAAAAATATTAT [CACACA_site2571] | 8.79 ± 0.44
TACTGTTATAAATGTGGTACTAATATTATACATATA [XGTACX_site5116] | 8.66 ± 0.45
GTGTGATGGTCCAATATACACACTTAAAAAAAAAAA [CACACA_site2426] | 8.76 ± 0.46
TTAAATTATTAGAGAGTGCATTATATATATTATACA [GTGCAC_site9711] | 8.45 ± 0.43
TCTTTAATGATGTGTACACAAGAAAACATTGTTAAG [CACACA_site5299] | 8.8 ± 0.42
AAAAATAAGAGCGTAGCACACACGCATTTTATAAAT [CACACA_site8147] | 9.07 ± 0.36
TAGAAGCATCATTTTACACACATGCAAATGTAAAAT [CACACA_site1893] | 9.04 ± 0.32
TACATACTAAAAAAATGTACTTGTATTGTTTTTTTA [XGTACX_site8357] | 8.58 ± 0.34
GAAATATTTGTAAAAACATGCATGGTACTTTTAAAA [TGCATGCA_site6] | 8.8 ± 0.38
ACATAAGAATTTTTATGTACTCATAATATTTTATAT [XGTACX_site2398] | 8.57 ± 0.35
TTATTTAACGTATTCTCACACATATATATATATAAT [CACACA_site5226] | 8.95 ± 0.42
TTTCTATATGGATTTGCACACATAAAAATGCTTATA [CACACA_site8751] | 8.99 ± 0.37
TATATATATATATACACATGCAAAAATTTTTAATTT [TGCATGCA_site82] | 9.24 ± 0.57
ATATATATATATATATGTACATATGTTAGGATCAAA [XGTACX_site8626] | 9.56 ± 0.042
ATGACATATAAATATACACACATACGTAAGTATATT [CACACA_site5058] | 9.06 ± 0.34
TTATTGAACTTTTATAAAACCTGTATTATTATCTCT [CACACA_negctrl_site767] | 8.63 ± 0.59
TTATATTAATAATAAAGTACAAAAAATCATATATAA [XGTACX_site799] | 8.6 ± 0.52
TCCAGGCTACACTCTAGTACTCGTAGGGTTATGAGA [XGTACX_site4945] | 8.69 ± 0.5
TATTTCTTATTACATACACACATATACATATATGAC [CACACA_site3201] | 9.05 ± 0.31
AAAAAATTCAAAATCACACATAAAAAAGGACACATA [CACACA_site5972] | 8.96 ± 0.46
TAATTTTGTAAAAATTGTACATATTTATCTTTTTAT [XGTACX_site4305] | 8.63 ± 0.54

Sequence | gcPBM binding intensity (ln)
TCATATTATAAAAAATGTACAAGGAAAAAATATATA [XGTACX_site337] | 8.72 ± 0.4
ACATTATATAAAATATGTACACATAAATAAATAAAT [XGTACX_site5031] | 9.12 ± 0.4
AAAAAAAAAAAAAACACACACATATAATATATTTAA [CACACA_site1337] | 9.17 ± 0.44
CCTACAATTCGTAATACACACACATATATATATATA [CACACA_site9251] | 9.69 ± 0.085
TTTTTTTTTTACTTCACACATATACATTTATATTTA [CACACA_site4385] | 8.78 ± 0.45
TAAACATACAGATACACACACACACCCACAGAGACA [CACACA_site4429] | 10.15 ± 0.028
AGAATCACCAAATATGTACACACCTTAACATGTTTA [CACACA_site2068] | 9.15 ± 0.42
ATATATATGGTCATTTGTACATATCGTGAGAGCTGC [XGTACX_site4117] | 8.95 ± 0.3
ATATAACATAATGGATGTACATGTATAAATATAAAA [XGTACX_site8228] | 9.15 ± 0.5
TATATTATAAATTAATGTACGTAATTTTTTTTTTTT [XGTACX_site2500] | 8.38 ± 0.48
ATAATAATATTATTTTGTACATATGTGCTTATTTAT [XGTACX_site5540] | 9.01 ± 0.45
GTATAATTTAAAAAGTGTACATAAAGTTTTTATTAA [XGTACX_site1090] | 8.46 ± 0.49
TTTTGTCAACATTTTTATATTAGGTCTTGAACGATT [GTGCAC_negctrl_site72] | 8.57 ± 0.47
AGTAATAAGTAATTTACACACATATTATAGCATCAC [CACACA_site6971] | 9.2 ± 0.37
CTTGGGCGTCATAATGAACACACAATTATATTATGA [CACACA_site9297] | 8.74 ± 0.41
TTATTACCATATTTTGTACACACATCTTTATCTCAA [CACACA_site9054] | 9.3 ± 0.49
TATATATAAGCGCATGCACACGCAAAGGTATATAAA [CACACA_site8107] | 9.3 ± 0.48
ATTATATAATCTATATGTACATATATATATATATAT [XGTACX_site4970] | 9.44 ± 0.23
ATATATACAAATCCTTTTTTCCAAGATGGAAAAAGA [CACACA_negctrl_site382] | 8.38 ± 0.38
AAAATAATAAATAACGCATGCGTGTGCATTTTATTC [TGCATGCA_site898] | 9.29 ± 0.41
